Data from the supplement of paper PMC9446081.
Screen size: about 39,000 compounds; about 220 (0.56%) showed activity. Some of the results follow.

tested on: Escherichia coli K-12 BW25113; experiment: relative growth (OD600 normalised to plate interquartile mean) (fraction); higher = less growth inhibition, active = 0.2 or less; details: 50 µM; LB; incubation time: overnight (16-24 h)
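Also: static incubation at 37 °C against the wild-type strain, values averaged over two biological replicates.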

Compound | relative growth
COc1ccc(S(=O)(=O)Nc2ccc3c(c2)C(=O)N([C@H](C)CO)C[C@H](C)[C@H](CN(C)S(=O)(=O)c2ccc(Cl)cc2)OCCCC[C@@H](C)O3)cc1 | inactive: 0.996
Br.CN1CCCC1Cc1c[nH]c2ccc(CCS(=O)(=O)c3ccccc3)cc12 (centres undefined) | inactive: 1.02
C[C@@H]1CN([C@@H](C)CO)C(=O)c2cc(NC(=O)NC3CCCCC3)ccc2O[C@@H]1CN(C)C(=O)Nc1ccc(C(F)(F)F)cc1 | inactive: 1.01
CC(C)NC(=O)N(C)C[C@H]1Oc2c(NS(=O)(=O)c3ccc(Cl)cc3)cccc2C(=O)N([C@H](C)CO)C[C@H]1C | inactive: 0.999
C[C@H](CO)N1C[C@H](C)[C@@H](CN(C)C(=O)Cc2ccncc2)Oc2cc(C#CC3CCCCC3)ccc2S1(=O)=O | inactive: 0.99
C[C@H]1CN([C@@H](C)CO)C(=O)c2cc(NC(=O)CCCN(C)C)ccc2O[C@@H]1CN(C)Cc1ccccc1 | inactive: 0.98
C[C@H](CO)N1C[C@H](C)[C@@H](CN(C)Cc2ccc3c(c2)OCO3)Oc2c(NS(C)(=O)=O)cccc2C1=O | inactive: 0.999
C[C@H]1CN([C@@H](C)CO)C(=O)c2cc(NC(=O)Nc3cccc4ccccc34)ccc2O[C@H]1CN(C)S(=O)(=O)c1ccccc1 | inactive: 1.02
CC(C)NC(=O)N(C)C[C@@H]1Oc2ccc(NC(=O)C3CCCCC3)cc2C(=O)N([C@H](C)CO)C[C@@H]1C | inactive: 0.926
COc1ccc(CNC(=O)C[C@H]2C[C@@H]3c4cc(NC(=O)NC5CCCC5)ccc4O[C@@H]3[C@H](CO)O2)cc1 | inactive: 1
C[C@@H]1CCCCO[C@@H](CN(C)Cc2ccncc2)[C@@H](C)CN([C@@H](C)CO)C(=O)c2cc(NS(=O)(=O)c3ccc(Cl)cc3)ccc2O1 | inactive: 1.02
C[C@@H]1CCCCO[C@H](CN(C)S(=O)(=O)c2cccs2)[C@@H](C)CN([C@H](C)CO)C(=O)c2cc(NC(=O)C3CCCCC3)ccc2O1 | inactive: 1.02
C[C@@H]1CN([C@@H](C)CO)C(=O)c2cc(NC(=O)CCCN(C)C)ccc2O[C@@H]1CN(C)Cc1ccc(C(=O)O)cc1 | inactive: 0.987
COC(=O)/C=C/C(=O)O | inactive: 0.999
C[C@H](CO)N1C[C@H](C)[C@@H](CN(C)C(=O)c2cc(Cl)cc(Cl)c2)OCc2ccccc2-c2ccccc2C1=O | inactive: 0.98
C[C@@H]1CCCCO[C@H](CN(C)CC2CCCCC2)[C@H](C)CN([C@H](C)CO)C(=O)c2cc(NC(=O)c3ccccc3)ccc2O1 | inactive: 0.984
CNC[C@H]1Oc2ccc(NC(=O)Cn3cnnn3)cc2CC(=O)N([C@@H](C)CO)C[C@@H]1C | inactive: 0.99
C[C@H](CO)N1C[C@H](C)[C@H](CN(C)C(=O)Nc2cccc3ccccc23)Oc2c(NC(=O)C3CCCCC3)cccc2C1=O | inactive: 0.905
C[C@@H]1CN([C@@H](C)CO)C(=O)c2cc(NS(=O)(=O)c3cn(C)cn3)ccc2O[C@@H](C)CCCCO[C@H]1CN(C)C(=O)c1ccncc1 | inactive: 1
Cn1cc(C(F)(F)F)ccc1=S | inactive: 1.02

Compound | relative growth
O=C(C[C@H]1CC[C@@H]2[C@H](COC[C@@H](O)CN2S(=O)(=O)c2cccc(Cl)c2)O1)N1CCOCC1 | inactive: 1
CO[C@@H]1CN(C)C(=O)c2cc(NC(=O)C3CCOCC3)ccc2OC[C@H](C)N(Cc2cccnc2)C[C@@H]1C | inactive: 1.01
C[C@@H]1CCCCO[C@H](CN(C)Cc2ccc(C(=O)O)cc2)[C@@H](C)CN([C@@H](C)CO)C(=O)c2cc(NC(=O)Nc3ccc4c(c3)OCO4)ccc2O1 | inactive: 1
CCCN(C)C[C@@H]1OCCCC[C@H](C)Oc2ccc(NS(C)(=O)=O)cc2C(=O)N([C@@H](C)CO)C[C@H]1C | inactive: 1.02
COc1ccc(S(=O)(=O)N(C)C[C@H]2OCCCC[C@H](C)Oc3ccc(NC(=O)Nc4ccc(F)cc4)cc3C(=O)N([C@H](C)CO)C[C@@H]2C)cc1 | inactive: 1.02
Cc1ccc(S(=O)(=O)Nc2ccc3c(c2)C(=O)N([C@H](C)CO)C[C@@H](C)[C@H](CN(C)C(=O)Nc2ccc4c(c2)OCO4)OCCCC[C@H](C)O3)cc1 | inactive: 1.01
COc1ccc(NC(=O)Nc2ccc3c(c2)C(=O)N([C@@H](C)CO)C[C@@H](C)[C@@H](CN(C)C(=O)c2ccccc2)OCCCC[C@H](C)O3)cc1 | inactive: 1
COCCOC(=O)N1C(=O)[C@@]2(c3cc(C#CC4=CCCCC4)ccc31)[C@H](c1ccc(OCCO)cc1)N1[C@H](c3ccccc3)[C@H](c3ccccc3)OC(=O)[C@H]1[C@@H]2C(=O)N1CCN(c2ncccn2)CC1 | inactive: 1.08
CC(C)NC(=O)Nc1ccc2c(c1)C(=O)N([C@@H](C)CO)C[C@@H](C)[C@H](CN(C)Cc1ccc(Oc3ccccc3)cc1)O2 | inactive: 1.04
CCCN(C)C[C@@H]1OCCCC[C@@H](C)Oc2ccc(NS(=O)(=O)c3cn(C)cn3)cc2C(=O)N([C@@H](C)CO)C[C@@H]1C | inactive: 1.01
O/N=C/c1ccccc1C(F)(F)F | inactive: 0.992
C[C@@H]1CCCCO[C@@H](CN(C)CC2CCCCC2)[C@@H](C)CN([C@H](C)CO)C(=O)c2cc(NS(=O)(=O)c3ccccc3)ccc2O1 | inactive: 0.975
COc1ccc(CN(C)C[C@@H]2Oc3c(NC(=O)Nc4cccc5ccccc45)cccc3C(=O)N([C@@H](C)CO)C[C@@H]2C)cc1 | inactive: 0.853
COCC(=O)N1C[C@H](C)[C@@H](OC)CN(C)C(=O)c2ccc(NC(=O)c3ccc(OC)cc3)cc2OC[C@@H]1C | inactive: 0.968
CO[C@@H]1CN(C)C(=O)c2cc(NS(=O)(=O)c3cn(C)cn3)ccc2OC[C@@H](C)N(CC2CC2)C[C@@H]1C | inactive: 0.991
C[C@@H]1CN([C@H](C)CO)C(=O)c2cc(NC(=O)Nc3ccc(F)cc3)ccc2O[C@@H]1CN(C)S(C)(=O)=O | inactive: 0.972
CN1CCN(C(=O)C[C@H]2C=C[C@H](NS(=O)(=O)c3cccc(F)c3)[C@H](CO)O2)CC1 | inactive: 0.99
O=c1c(-c2ccc(O)cc2)coc2c(C3OC(CO)C(O)C(O)C3O)c(O)ccc12 (centres undefined) | inactive: 0.851
O=C1OCC=C[C@H]2O[C@@]34C=CCN(Cn5nnc6ccccc65)C(=O)[C@H]3N(CCO)C(=O)[C@@H]4[C@@H]12 | inactive: 1.03
CNC(=O)CO[C@H]1COC2(CCN(C(=O)c3ccn(C)n3)CC2)C1 | inactive: 1.02

Compound | relative growth
Cn1nc(Cn2ccnc2)c2c1CN(CCO)C2 | inactive: 1.01
C[C@H]1CCCCO[C@@H](CN(C)C(=O)NC2CCCCC2)[C@@H](C)CN([C@@H](C)CO)C(=O)c2cc(NC(=O)Nc3cccc4ccccc34)ccc2O1 | inactive: 1.02
COc1ccc(S(=O)(=O)Nc2cccc3c2O[C@@H](CN(C)S(=O)(=O)c2ccc(C)cc2)[C@H](C)CN([C@@H](C)CO)C3=O)cc1 | inactive: 0.941
C[C@@H]1CN([C@H](C)CO)C(=O)c2cc(NC(=O)CCCCCC(=O)Nc3ccccc3N)ccc2O[C@H]1CN(C)C(=O)Nc1ccccc1 | inactive: 0.937
COc1ccc(S(=O)(=O)Nc2ccc3c(c2)C(=O)N([C@@H](C)CO)C[C@@H](C)[C@@H](CN(C)Cc2ccc(C(F)(F)F)cc2)OCCCC[C@H](C)O3)cc1 | inactive: 1.06
CN1CCN(C(=O)C[C@@H]2C=C[C@@H](NS(=O)(=O)c3cccc(F)c3)[C@@H](CO)O2)CC1 | inactive: 0.98
CCCCCCCCCCCCCCCC(=O)OCC(O)CO (centres undefined) | inactive: 0.934
COCC#Cc1ccc2c(c1)O[C@@H](CN(C)Cc1ccc3c(c1)OCO3)[C@@H](C)CN([C@@H](C)CO)S2(=O)=O | inactive: 0.983
CCS(=O)(=O)N1CCOC[C@]2(CN(c3cnn(C)c3)C(=O)CO2)C1 | inactive: 1.03
C[C@@H]1CN([C@H](C)CO)C(=O)c2cc(NC(=O)Nc3ccc(C(F)(F)F)cc3)ccc2O[C@@H]1CN(C)C(=O)Nc1ccc(C(F)(F)F)cc1 | inactive: 1
COc1ccc(NC(=O)N[C@H]2CC[C@@H](CCNC(=O)CN3CCOCC3)O[C@@H]2CO)cc1 | inactive: 0.986
C[C@H](CO)N1C[C@H](C)[C@H](CN(C)Cc2ccc(F)cc2)Oc2ncc(-c3cccc(C(F)(F)F)c3)cc2C1=O | inactive: 0.987
COC(=O)[C@H](Cc1ccccc1)N1CC2=C[C@@H]([C@@H](O)CCn3cc(C(=O)NO)nn3)n3c(=O)n(C)c(=O)n3[C@@H]2[C@@H](C2CC2)O1 | inactive: 0.967
C[C@H]1CN([C@@H](C)CO)C(=O)Cc2cc(NS(=O)(=O)c3ccc(F)cc3)ccc2O[C@H]1CN(C)C(=O)Nc1cccc2ccccc12 | inactive: 0.988
COc1ccc(CN(C)C[C@@H]2Oc3c(NS(C)(=O)=O)cccc3C(=O)N([C@H](C)CO)C[C@H]2C)cc1 | inactive: 0.997
NCC[C@H]1CC[C@@H](NC(=O)Nc2ccc(F)cc2)[C@@H](CO)O1 | inactive: 0.988
COCC(=O)N1C[C@H](C)[C@H](OC)CN(C)C(=O)c2ccc(NC(=O)c3ccc(OC)cc3)cc2OC[C@H]1C | inactive: 0.984
C=CCC[C@@H](Cc1ccc(F)cc1)C(=O)OC[C@H](Cc1c[nH]c2ccccc12)NC(=O)[C@@H](CC=C)CC(=O)N[C@H](CO)Cc1ccccc1 | inactive: 1.06
C[C@H]1CN([C@@H](C)CO)S(=O)(=O)c2ccc(C#Cc3ccccc3)cc2O[C@@H]1CN(C)S(=O)(=O)c1ccccc1F | inactive: 1.02
